# This is one part of the list.
# B1: SP16663B-bot-321-25-321 (Bacteroides ovatus) (protein)
# chain: DDDDEVTMNSKFYLSTKVFPVDSYEASLSVILKDNSVVVNELQPNYRFVACATERLSKDVKITADSDDNLVSAYNKANDTEYNILPAENYSFTNKTVTIENGESVSGDSIKIELLNVGSLTTEGGYLLPVTISSIEGNNLDALSSNRGVVYLKIQNIHVNVESGQPAEGTLIADRSGWTVKVAPTTRGDAKNLIDGTNSDVARDGGAEYWLTVDIGKVQTLTGIRNKCYASSYSPTAVEVFTSSDGAKWKSIGAVTISKSGTQYIKFSKAVETRYLKYYVKQGPNTVSLTEFDLYAK
# Legend:
# Experiment in all cases: glycan array binding signal (z-score within array); higher = stronger binding
# Conditions in all cases: glycan notation: IUPAC condensed, linker removed
# [1] = target: Neu5Ac(a2-6)GlcNAc(b1-4)GlcNAc(b1-4)GlcNAc
# In short: (§1)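 Negative Z-scores can be read as non-binding. The Z-score is calculated within each array and then averaged across arrays of one protein sequence at different concentrations or buffers and across linkers. Arrays, 3228 in all, were curated from the Consortium for Functional Glycomics database and kept only where the protein sequence was available.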
# Neu5Ac(a2-8)Neu5Ac = target: Neu5Ac(a2-8)Neu5Ac
# In short: as §1
# [2] = target: Neu5Ac(a2-8)Neu5Ac(a2-3)Gal(b1-3)GalNAc(b1-4)[Neu5Ac(a2-3)]Gal(b1-4)Glc
# In short: as §1
# [3] = target: Neu5Ac(a2-8)Neu5Ac(a2-3)Gal(b1-3)GalNAc(b1-4)[Neu5Ac(a2-8)Neu5Ac(a2-3)]Gal(b1-4)Glc
# In short: as §1
# [4] = target: Neu5Ac(a2-8)Neu5Ac(a2-3)Gal(b1-4)Glc
# In short: as §1
# [5] = target: Neu5Ac(a2-8)Neu5Ac(a2-3)Gal(b1-4)GlcNAc
# In short: as §1
# [6] = target: Neu5Ac(a2-8)Neu5Ac(a2-3)[Gal(b1-3)GalNAc(b1-4)]Gal(b1-4)Glc
# In short: as §1
# [7] = target: Neu5Ac(a2-8)Neu5Ac(a2-3)[GalNAc(b1-4)]Gal(b1-4)Glc
# In short: as §1
# [8] = target: Neu5Ac(a2-8)Neu5Ac(a2-8)Neu5Ac
# In short: as §1
# [9] = target: Neu5Ac(a2-8)Neu5Ac(a2-8)Neu5Ac(a2-3)Gal(b1-4)Glc
# In short: as §1
# [10] = target: Neu5Ac(a2-8)Neu5Ac(a2-8)Neu5Ac(a2-3)[Gal(b1-3)GalNAc(b1-4)]Gal(b1-4)Glc
# In short: as §1
# [11] = target: Neu5Ac(a2-8)Neu5Ac(a2-8)Neu5Ac(a2-3)[GalNAc(b1-4)]Gal(b1-4)Glc
# In short: as §1
# [12] = target: Neu5Ac(a2-8)Neu5Ac(a2-8)Neu5Ac(a2-8)Neu5Ac(a2-3)[GalNAc(b1-4)]Gal(b1-4)Glc
# In short: as §1
# [13] = target: Neu5Ac(a2-8)Neu5Gc(a2-3)Gal(b1-4)GlcNAc
# In short: as §1
# [14] = target: Neu5Ac(b2-6)Gal(b1-4)GlcNAc
# In short: as §1
# Neu5Ac(b2-6)GalNAc = target: Neu5Ac(b2-6)GalNAc
# In short: as §1
# [15] = target: Neu5Ac9Ac(a2-3)Gal(b1-3)GlcNAc
# In short: as §1
# [16] = target: Neu5Ac9Ac(a2-3)Gal(b1-4)GlcNAc
# In short: as §1
# [17] = target: Neu5Ac9Ac(a2-6)Gal(b1-4)GlcNAc
# In short: as §1
# [18] = target: Neu5Gc(a2-3)Gal(b1-3)GlcNAc
# In short: as §1
# [19] = target: Neu5Gc(a2-3)Gal(b1-3)[Fuc(a1-4)]GlcNAc
# In short: as §1
# Neu5Gc(a2-3)Gal(b1-4)Glc = target: Neu5Gc(a2-3)Gal(b1-4)Glc
# In short: as §1
# [20] = target: Neu5Gc(a2-3)Gal(b1-4)GlcNAc
# In short: as §1
# [21] = target: Neu5Gc(a2-3)Gal(b1-4)GlcNAc(b1-3)Gal(b1-4)GlcNAc(b1-2)Man(a1-3)[Neu5Gc(a2-3)Gal(b1-4)GlcNAc(b1-3)Gal(b1-4)GlcNAc(b1-2)Man(a1-6)]Man(b1-4)GlcNAc(b1-4)GlcNAc
# In short: as §1
# [22] = target: Neu5Gc(a2-3)Gal(b1-4)[Fuc(a1-3)]GlcNAc
# In short: as §1
# [23] = target: Neu5Gc(a2-6)Gal(b1-4)GlcNAc
# In short: as §1
# Neu5Gc(a2-6)GalNAc = target: Neu5Gc(a2-6)GalNAc
# In short: as §1
# [24] = target: Neu5Gc(a2-8)Neu5Ac(a2-3)Gal(b1-4)GlcNAc
# In short: as §1
# [25] = target: Neu5Gc(a2-8)Neu5Gc(a2-3)Gal(b1-4)GlcNAc
# In short: as §1
# [26] = target: Neu5Gc(a2-8)Neu5Gc(a2-3)Gal(b1-4)GlcNAc(b1-3)Gal(b1-4)GlcNAc
# In short: as §1
# [27] = target: Neu5Gc(a2-8)Neu5Gc(a2-6)Gal(b1-4)GlcNAc
# In short: as §1
# [28] = target: Neu5Gc(b2-6)Gal(b1-4)GlcNAc
# In short: as §1
binder,measurement,setting,value
B1,glycan array binding signal (z-score),[1],-0.642
same,glycan array binding signal (z-score),Neu5Ac(a2-8)Neu5Ac,0.1
same,glycan array binding signal (z-score),[2],-0.244
same,glycan array binding signal (z-score),[3],0.929
same,glycan array binding signal (z-score),[4],0.316
same,glycan array binding signal (z-score),[5],-0.054
same,glycan array binding signal (z-score),[6],0.154
same,glycan array binding signal (z-score),[7],0.071
same,glycan array binding signal (z-score),[8],0.216
same,glycan array binding signal (z-score),[9],0.516
same,glycan array binding signal (z-score),[10],-0.556
same,glycan array binding signal (z-score),[11],-0.535
same,glycan array binding signal (z-score),[12],-0.261
same,glycan array binding signal (z-score),[13],0.003
same,glycan array binding signal (z-score),[14],-0.188
same,glycan array binding signal (z-score),Neu5Ac(b2-6)GalNAc,-0.878
same,glycan array binding signal (z-score),[15],0.033
same,glycan array binding signal (z-score),[16],0.4
same,glycan array binding signal (z-score),[17],-0.161
same,glycan array binding signal (z-score),[18],-0.305
same,glycan array binding signal (z-score),[19],-0.17
same,glycan array binding signal (z-score),Neu5Gc(a2-3)Gal(b1-4)Glc,-0.241
same,glycan array binding signal (z-score),[20],-0.46
same,glycan array binding signal (z-score),[21],-0.142
same,glycan array binding signal (z-score),[22],-0.612
same,glycan array binding signal (z-score),[23],0.696
same,glycan array binding signal (z-score),Neu5Gc(a2-6)GalNAc,0.136
same,glycan array binding signal (z-score),[24],-0.244
same,glycan array binding signal (z-score),[25],0.233
same,glycan array binding signal (z-score),[26],-0.671
same,glycan array binding signal (z-score),[27],-0.34
same,glycan array binding signal (z-score),[28],0.159

# Reference: the supplement of paper PMC8728848
